Laboratory results from publication PMC6919601, “Identification of Plasmodium dipeptidyl aminopeptidase allosteric inhibitors by high throughput screening” (PLoS ONE, 2019).
Among all 110,000 compounds or so, about 230 (0.21%) showed an effect of 50% or more. The list shows a part of the results.

Molecular target: DPAP1 (Plasmodium falciparum, UniProt Q8IIJ9)
Experiment: primary screen, percent inhibition; read by cleavage of a fluorogenic dipeptide substrate; higher = more effect of the substance
Parameters: species or system P. falciparum D10 trophozoite lysates; single well
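Further: 30 min substrate incubation versus DMSO and 10 µM JCP410 controls.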

DPAP1, sequence (Q8IIJ9 whole entry, looked up): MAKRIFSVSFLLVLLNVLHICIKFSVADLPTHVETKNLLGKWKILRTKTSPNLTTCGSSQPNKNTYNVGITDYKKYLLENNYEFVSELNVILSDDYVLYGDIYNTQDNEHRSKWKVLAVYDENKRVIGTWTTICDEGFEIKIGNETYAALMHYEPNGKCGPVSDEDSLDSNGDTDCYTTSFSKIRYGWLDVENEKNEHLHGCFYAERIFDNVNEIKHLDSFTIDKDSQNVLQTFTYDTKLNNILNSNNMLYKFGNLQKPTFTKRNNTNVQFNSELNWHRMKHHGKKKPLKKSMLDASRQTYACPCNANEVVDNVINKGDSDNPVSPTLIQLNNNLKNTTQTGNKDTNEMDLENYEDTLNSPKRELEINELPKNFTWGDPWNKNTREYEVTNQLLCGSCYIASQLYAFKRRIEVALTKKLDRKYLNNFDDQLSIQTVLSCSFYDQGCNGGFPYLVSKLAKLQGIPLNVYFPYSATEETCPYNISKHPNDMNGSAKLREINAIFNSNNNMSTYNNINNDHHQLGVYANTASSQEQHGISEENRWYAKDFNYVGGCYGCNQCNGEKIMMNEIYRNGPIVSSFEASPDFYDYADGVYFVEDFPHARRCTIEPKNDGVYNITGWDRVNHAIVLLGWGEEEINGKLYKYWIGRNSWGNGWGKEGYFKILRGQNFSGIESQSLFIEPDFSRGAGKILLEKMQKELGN

Row | Structure (SMILES) | % Inhibition @ 10 uM
1 | Cc1nc2c3ccccc3nc(SCC(=O)c3ccc(Cl)c(Cl)c3)n2n1 | 4.33%
2 | O=C(NCCC1=CCCCC1)C1CCN(c2nc3ccc(Br)cc3s2)CC1 | -7.02%
3 | COc1ccc(-c2nc3ccccc3n2-c2cc(-c3ccccc3)nn2-c2ccccc2)cc1 | -8.01%
4 | Cc1noc(NS(=O)(=O)c2ccc(NC(=O)c3ccoc3C)cc2)c1C | -1.44%
5 | O=C(C1CCN(S(=O)(=O)N2CCCC2)CC1)N1CCOCC1 | 3.79%
6 | Cc1cccc(-n2nnc(-c3nc(-c4ccc(Cl)cc4)no3)c2N)c1C | 0.868%
7 | CCCN1CC=C2C(C#N)=C(N)C(C#N)(C#N)C(c3cccc(OC)c3OC)C2C1 (centres unmarked) | 1.58%
8 | CC(C)C[C@H](NC(=O)c1ccc(-n2ccnc2)nc1)C(=O)NCC#N | -0.778%
9 | CCOC(=O)C1=C(c2ccccc2)N2CCN=C2S1 | 6.06%
10 | CCN(CC)C(=S)SC1=C(C)CS(=O)(=O)C1 | -7.7%
11 | COCCCNc1oc(-c2ccc(OC)cc2)nc1C#N | 3.43%
12 | CN1CCC(OC(c2ccccc2)c2ccccc2)CC1 | 0.385%
13 | N#CCNC(=O)[C@H](Cc1cc(Cl)c(O)c(Cl)c1)NC(=O)c1ccc(-c2ccc(Cl)cc2)cc1 | -3.25%
14 | CCOC(=O)c1cnn2c(O)cc(C)nc12 | 3.74%
15 | CCN(CC)C(=O)CSc1nc2ccc(NC(=O)c3ccccc3)cc2s1 | 4.09%
16 | CN1CCN(c2nc3c(O)ncnc3n2C2OC(CO)C(O)C2O)CC1 (centres unmarked) | 4.41%
17 | CC(=O)Nc1ccc(C(=O)Nc2ccc3c(c2)N(C(=O)CN(C)C)c2ccccc2CC3)cc1 | 0.937%
18 | O=C(c1ccc(CN2C(=O)CCn3nccc32)cc1)N1CCOCC1 | -1.6%
19 | CCCSC1=C(C#N)C(c2ccco2)C(C(=O)Nc2ccccc2)=C(C)N1 (centres unmarked) | 3.05%
20 | CCOc1cc(/C=C2\SC(=O)NC2=O)ccc1OCC(C)C | -5.82%
21 | O=C(Nc1cccnc1)c1c(O)nc2ccccc2c1O | -3.23%

Row | Structure (SMILES) | % Inhibition @ 10 uM
22 | CCC(Cc1ccccc1)NC(=O)c1cc(C)nn1-c1ccccc1 (centres unmarked) | -0.138%
23 | CCN(CC)S(=O)(=O)c1ccc(F)c(C(=O)NCCC2=CCCCC2)c1 | -1.99%
24 | CN1CCC(N(C)Cc2ccc(-c3cccc(Cl)c3)o2)CC1 | 1.57%
25 | O=C1CC(NCc2cccc(Cl)c2)C(=O)N1c1ccccc1 (centres unmarked) | 6.48%
26 | Cc1nc2ccc(S(=O)(=O)NCC(=O)N3CCN(Cc4ccccc4)CC3)cc2s1 | -0.72%
27 | Cc1cc2c(c(=O)o1)C1(C(=O)Nc3cc(Br)c(C)cc31)C(C#N)=C(N)O2 (centres unmarked) | -0.546%
28 | Cc1ccc(-c2ccc(=O)n(CC(=O)NCCCN3CCCCC3)n2)cc1 | -1.21%
29 | CCCNC(=O)Cn1nc(C)n2c(cc3cc(OC)ccc32)c1=O | 4.84%
30 | Cc1ccccc1-c1nc(CS(=O)(=O)CC(=O)NCCCN2C(C)CCCC2C)c(C)o1 (centres unmarked) | -0.138%
31 | CCCCC(C(=O)N1CCOCC1)N1C(=O)C2C3c4ccccc4C(c4ccccc43)C2C1=O (centres unmarked) | 0.777%
32 | Cc1cc(C)cc(NS(=O)(=O)c2c(C)cc(C)cc2C)c1 | 5.43%
33 | CCc1ccccc1S(=O)(=O)Cc1ccc(C(=O)NCc2ccccc2Cl)o1 | 5.34%
34 | CCN(CC)C(=O)C1CCCN(Cc2cccnc2)C1 (centres unmarked) | -4.5%
35 | CC[C@H](C)[C@H](NC(=O)Cc1cccnc1)C(=O)N[C@@H](CCc1ccccc1)C(=O)CO | -7.36%
36 | O=C(CSc1nc(-c2ccccc2Cl)n[nH]1)c1ccccc1 | -0.25%
37 | Cc1ccc(Cl)cc1NC(=O)c1sc2nc(-c3ccncc3)ccc2c1N | -3.39%
38 | CCCc1ccc(OCC(O)CN2CCCC2)cc1 (centres unmarked) | 6.25%
39 | CC1CN(C(=O)c2cccc3c2-c2ccccc2C3=O)CC(C)O1 (centres unmarked) | 2.46%
40 | CCn1cc(/C=C(\NC(=O)c2ccccc2)C(=O)NCCN2CCOCC2)c2ccccc21 | -0.0235%
41 | O=C(NCc1ccc(F)cc1)C1CCCN(S(=O)(=O)c2cccc3nonc23)C1 (centres unmarked) | 2.35%
42 | Cn1c(NCc2ccccc2)cc(=O)n(C)c1=O | 13.2%

Row | Structure (SMILES) | % Inhibition @ 10 uM
43 | CC1CCCN(C(=O)c2ccc3c(c2)sc2nc(-c4ccc(F)cc4)cn23)C1 (centres unmarked) | -5.15%
44 | CCOc1ccc(/C=C/c2nc(C#N)c(N3CCN(Cc4ccccc4)CC3)o2)cc1 | -6.29%
45 | CC(=O)c1nc(C)c(O)c(O)c1C | -7.35%
46 | c1ccc(CN2CCN(Cc3c[nH]c4ccccc34)CC2)cc1 | -2.56%
47 | COc1ccc(-c2cc(C(F)(F)F)n3nc(C(=O)NCc4cnn(C)c4C)c(Cl)c3n2)cc1 | 2.45%
48 | CN(CCc1ccccn1)Cc1cccc(Br)c1 | 5.06%
49 | CCOC(=O)N1CCN(S(=O)(=O)c2cc(Br)ccc2OC)CC1 | -0.251%
50 | O=C(Nc1ccc(S(=O)(=O)Nc2nccs2)cc1)c1ccc2c(c1)OCO2 | 7.82%
51 | O=C(CSc1nc2ccccc2nc1N1CCCCC1)NCc1ccc2c(c1)OCO2 | -0.183%
52 | COc1cc(C(c2c(C)n(C)n(-c3ccccc3)c2=O)c2c(C)n(C)n(-c3ccccc3)c2=O)cc(OC)c1OC | -4.58%
53 | O=S(=O)(NCc1ccc2c(c1)OCO2)c1c[nH]cn1 | 1.23%
54 | CC(C)C(NC(=O)CN(c1ccccc1F)S(=O)(=O)c1ccccc1)C(C)C | -2.83%
55 | COc1ccc(N(CC(=O)Nc2ccccc2C)S(=O)(=O)c2ccccc2)cc1OC | -15.2%
56 | O=C(Nc1cccc2ccccc12)OC[C@@H]1CCCN2CCCC[C@H]12 | -1.32%
57 | Cc1cc(C)c2ccc(Cl)cc2n1 | 2.62%
58 | COc1ccc(CN2CCN(c3ccc(F)cc3)CC2)cc1C | 3%
59 | CCOC(=O)c1ccccc1NC(=O)c1ccc(Cl)c(Cl)c1 | -0.116%
60 | COc1ccc(C2C(C#N)=C(N)OC3=C2C(=O)CCC3)c(C)c1C (centres unmarked) | -0.261%
61 | Cc1cccc(OCC(=O)Nc2ccc(S(=O)(=O)N3CCc4ccccc43)cc2)c1 | 3.17%
62 | CC(=O)c1ccc(N2CCN(Cc3cccc(Cl)c3Cl)CC2)cc1 | 0.273%
